Results from the supplement of paper PMC4604168 (melanoma cell lines).
The other results are listed elsewhere or left out. Many values rest on one well or one pass, so single values are uncertain.

Columns and labels:
Assay in all cases: cell count relative to DMSO control; melanoma cells; higher = more viable cells
Settings in all cases: library dose: low library concentration; 72 h
[1] = tested on: WM115
[2] = tested on: WM1716
[3] = tested on: WM1745
[4] = tested on: WM3526
[5] = tested on: WM3619
[6] = tested on: WM451Lu
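Note: cell number obtained by counting DAPI-stained nuclei in high-throughput microscope images with image analysis software, screen run in 1,536-well plates.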

Structure (SMILES) | cell count [1] | cell count [2] | cell count [3] | cell count [4] | cell count [5] | cell count [6]
CN1CCN(c2ccc3nc(-c4c(N)c5c(F)cccc5[nH]c4=O)[nH]c3c2)CC1 [Dovitinib] + NCC(=O)Nc1ccc(-n2nc(C(F)(F)F)cc2-c2ccc3c(ccc4ccccc43)c2)cc1 [OSU03012] (first compound 0.1 µM, partner dose 1 µM) | 90.6% | 100% | 86.3% | 36.5% | 108% | 66.9%
CS(=O)(=O)CCNCc1ccc(-c2ccc3ncnc(Nc4ccc(OCc5cccc(F)c5)c(Cl)c4)c3c2)o1 [lapatinib] + OCc1c[nH]c2ccccc12 [Indole-3-carbinol] (first compound 0.8 µM, partner dose 0.8 µM) | 85.8% | 88.3% | 100% | 90.9% | 83.8% | 87.6%
C=CCNC1=C2C[C@@H](C)C[C@H](OC)[C@H](O)[C@@H](C)/C=C(\C)[C@H](OC(N)=O)[C@@H](OC)/C=C\C=C(/C)C(=O)NC(=CC1=O)C2=O [Tanespimycin] + NC(=O)Nc1cc(-c2cccc(F)c2)sc1C(=O)N[C@H]1CCCNC1 [AZD7762] (first compound 0.002 µM, partner dose 0.02 µM) | 75% | 100% | 77% | 97.6% | 41.5% | 85.6%
CN1CCN(c2ccc3nc(-c4c(N)c5c(F)cccc5[nH]c4=O)[nH]c3c2)CC1 [Dovitinib] + Cc1cc(N2CCOCC2)cc2[nH]c(-c3c(NC[C@@H](O)c4cccc(Cl)c4)cc[nH]c3=O)nc12 [BMS536924] (first compound 0.1 µM, partner dose 0.2 µM) | 93.6% | 103% | 70.7% | 67.7% | 71.8% | 96%
C=CCNC1=C2C[C@@H](C)C[C@H](OC)[C@H](O)[C@@H](C)/C=C(\C)[C@H](OC(N)=O)[C@@H](OC)/C=C\C=C(/C)C(=O)NC(=CC1=O)C2=O [Tanespimycin] + Cc1cc([N+](=O)[O-])ccc1NS(=O)(=O)c1cc(Cl)ccc1Cl [FH535] (first compound 0.002 µM, partner dose 1 µM) | 75.4% | 89.7% | 71.8% | 102% | 101% | 78.9%
CNC(=O)c1cc(Oc2ccc(NC(=O)Nc3ccc(Cl)c(C(F)(F)F)c3)cc2)ccn1 [sorafenib] + CC(=O)c1c(C)c2cnc(Nc3ccc(N4CCNCC4)cn3)nc2n(C2CCCC2)c1=O [palbociclib] (first compound 0.4 µM, partner dose 0.04 µM) | 86.8% | 60.9% | 93.9% | 72.7% | 85.5% | 89.7%
CN1CCN(c2ccc3nc(-c4c(N)c5c(F)cccc5[nH]c4=O)[nH]c3c2)CC1 [Dovitinib] + COc1ccc(Cl)c(Nc2nc3ccccc3nc2NS(=O)(=O)c2cccc(NC(=O)C(C)(C)N)c2)c1 [XL147] (first compound 0.1 µM, partner dose 0.8 µM) | 88.4% | 103% | 76.9% | 100% | 78.4% | 113%
CNC(=O)c1cc(Oc2ccc(NC(=O)Nc3ccc(Cl)c(C(F)(F)F)c3)cc2)ccn1 [sorafenib] + CN(C)S(=O)(=O)c1ccc2c(c1)/C(=C/c1cc3c([nH]1)CCCC3)C(=O)N2 [SU6656] (first compound 0.4 µM, partner dose 0.4 µM) | 80.8% | 126% | 105% | 90.4% | 118% | 90.5%
CS(=O)(=O)CCNCc1ccc(-c2ccc3ncnc(Nc4ccc(OCc5cccc(F)c5)c(Cl)c4)c3c2)o1 [lapatinib] + CCCS(=O)(=O)Nc1ccc(F)c(C(=O)c2c[nH]c3ncc(Cl)cc23)c1F [PLX4720] (first compound 0.8 µM, partner dose 0.08 µM) | 95.6% | 108% | 96.4% | 72% | 97.1% | 120%
CN1CCN(c2ccc3nc(-c4c(N)c5c(F)cccc5[nH]c4=O)[nH]c3c2)CC1 [Dovitinib] + Cn1nnc2c(C(N)=O)ncn2c1=O [temozolomide] (first compound 0.1 µM, partner dose 2 µM) | 95% | 79.1% | 76.9% | 48.6% | 103% | 111%
CNC(=O)c1cc(Oc2ccc(NC(=O)Nc3ccc(Cl)c(C(F)(F)F)c3)cc2)ccn1 [sorafenib] + COc1cc2ncnc(Nc3ccc(Oc4ccccc4)cc3)c2cc1OC [SrcI1] (first compound 0.4 µM, partner dose 2 µM) | 99.5% | 99.2% | 73.3% | 112% | 98.7% | 120%
C[C@@H](Oc1cc(-c2cnn(C3CCNCC3)c2)cnc1N)c1c(Cl)ccc(F)c1Cl [Crizotinib] + C[C@]1(c2nc3c(C(N)=O)cccc3[nH]2)CCCN1 [Veliparib] (first compound 0.2 µM, partner dose 1.4 µM) | 83.9% | 92.1% | 86.7% | 89.4% | 106% | 110%
C[C@@H](Oc1cc(-c2cnn(C3CCNCC3)c2)cnc1N)c1c(Cl)ccc(F)c1Cl [Crizotinib] + Nc1cccc2c1CN(C1CCC(=O)NC1=O)C2=O [lenalidomide] (first compound 0.2 µM, partner dose 1 µM) | 99.8% | 96.4% | 104% | 79.2% | 102% | 98.5%
CN1CCN(c2ccc3nc(-c4c(N)c5c(F)cccc5[nH]c4=O)[nH]c3c2)CC1 [Dovitinib] + CN(NC(=O)CC(=O)NN(C)C(=S)c1ccccc1)C(=S)c1ccccc1 [STA4783] (first compound 0.1 µM, partner dose 0.006 µM) | 77.9% | 79.4% | 58.6% | 93.2% | 76.1% | 73.3%
C=CCNC1=C2C[C@@H](C)C[C@H](OC)[C@H](O)[C@@H](C)/C=C(\C)[C@H](OC(N)=O)[C@@H](OC)/C=C\C=C(/C)C(=O)NC(=CC1=O)C2=O [Tanespimycin] + COc1ccc(-c2ccc3c(N4CCOCC4)nc(N4C[C@@H](C)O[C@@H](C)C4)nc3n2)cc1CO [KU0063794] (first compound 0.002 µM, partner dose 0.02 µM) | 90% | 104% | 98% | 92% | 88.1% | 76%
CS(=O)(=O)CCNCc1ccc(-c2ccc3ncnc(Nc4ccc(OCc5cccc(F)c5)c(Cl)c4)c3c2)o1 [lapatinib] + Cc1ccc(NC(=O)c2cccc(N(C)C)c2)cc1NC(=O)c1ccc(O)cc1 [ZM336372] (first compound 0.8 µM, partner dose 2 µM) | 88.9% | 95.8% | 89.2% | 100% | 92.3% | 103%
CN1CCN(c2ccc3nc(-c4c(N)c5c(F)cccc5[nH]c4=O)[nH]c3c2)CC1 [Dovitinib] + O=C(O)[C@@H]1[O][Sb](=[O])([O][Sb]2(=[O])[O][C@H]([C@H](O)CO)[C@H](O)[C@H](C(=O)O)[O]2)[O][C@H]([C@H](O)CO)[C@@H]1O [stibogluconate] (first compound 0.1 µM, partner dose 2 µM) | 99.1% | 79.5% | 95.1% | 94.7% | 112% | 126%
CS(=O)(=O)CCNCc1ccc(-c2ccc3ncnc(Nc4ccc(OCc5cccc(F)c5)c(Cl)c4)c3c2)o1 [lapatinib] + Cc1cc([N+](=O)[O-])ccc1NS(=O)(=O)c1cc(Cl)ccc1Cl [FH535] (first compound 0.8 µM, partner dose 1 µM) | 88.9% | 94.7% | 81.3% | 90.6% | 89% | 111%
CNC(=O)c1cc(Oc2ccc(NC(=O)Nc3ccc(Cl)c(C(F)(F)F)c3)cc2)ccn1 [sorafenib] + O=C(CCCCCCC(=O)Nc1ccccc1)NO [vorinostat] (first compound 0.4 µM, partner dose 0.08 µM) | 119% | 109% | 91.2% | 63.5% | 94.9% | 82.9%
C=CCNC1=C2C[C@@H](C)C[C@H](OC)[C@H](O)[C@@H](C)/C=C(\C)[C@H](OC(N)=O)[C@@H](OC)/C=C\C=C(/C)C(=O)NC(=CC1=O)C2=O [Tanespimycin] + CC(=O)c1c(C)c2cnc(Nc3ccc(N4CCNCC4)cn3)nc2n(C2CCCC2)c1=O [palbociclib] (first compound 0.002 µM, partner dose 0.04 µM) | 61.6% | 65.3% | 74.1% | 58.4% | 61.2% | 70.5%
C[C@@H](Oc1cc(-c2cnn(C3CCNCC3)c2)cnc1N)c1c(Cl)ccc(F)c1Cl [Crizotinib] + O=C(O)c1ccc(-c2c[nH]c3ncc(-c4ccccc4)cc23)cc1C1CCCC1 [GSK650394] (first compound 0.2 µM, partner dose 0.16 µM) | 103% | 110% | 94.7% | 91.4% | 109% | 105%
C=CCNC1=C2C[C@@H](C)C[C@H](OC)[C@H](O)[C@@H](C)/C=C(\C)[C@H](OC(N)=O)[C@@H](OC)/C=C\C=C(/C)C(=O)NC(=CC1=O)C2=O [Tanespimycin] + CC1(C)NC(=O)N(c2ccc([N+](=O)[O-])c(C(F)(F)F)c2)C1=O [nilutamide] (first compound 0.002 µM, partner dose 1 µM) | 87.1% | 137% | 113% | 104% | 90.1% | 76.4%
CS(=O)(=O)CCNCc1ccc(-c2ccc3ncnc(Nc4ccc(OCc5cccc(F)c5)c(Cl)c4)c3c2)o1 [lapatinib] + Cc1nc(Nc2ncc(C(=O)Nc3c(C)cccc3Cl)s2)cc(N2CCN(CCO)CC2)n1 [dasatanib] (first compound 0.8 µM, partner dose 0.004 µM) | 80% | 101% | 67.2% | 106% | 81.2% | 85.6%
CS(=O)(=O)CCNCc1ccc(-c2ccc3ncnc(Nc4ccc(OCc5cccc(F)c5)c(Cl)c4)c3c2)o1 [lapatinib] + CCc1ccc(CCOc2ccc(CC3SC(=O)NC3=O)cc2)nc1 [pioglitazone] (first compound 0.8 µM, partner dose 2 µM) | 103% | 97.6% | 83.3% | 86.2% | 82.5% | 86.3%
CS(=O)(=O)CCNCc1ccc(-c2ccc3ncnc(Nc4ccc(OCc5cccc(F)c5)c(Cl)c4)c3c2)o1 [lapatinib] + Nc1nc(F)nc2c1ncn2[C@@H]1O[C@H](CO)[C@@H](O)[C@@H]1O [fludarabine] (first compound 0.8 µM, partner dose 0.2 µM) | 97.3% | 114% | 105% | 39.5% | 111% | 69.9%
C=CCNC1=C2C[C@@H](C)C[C@H](OC)[C@H](O)[C@@H](C)/C=C(\C)[C@H](OC(N)=O)[C@@H](OC)/C=C\C=C(/C)C(=O)NC(=CC1=O)C2=O [Tanespimycin] + Cn1c(Nc2ccc(C(F)(F)F)cc2)nc2cc(Oc3ccnc(-c4ncc(C(F)(F)F)[nH]4)c3)ccc21 [CHIR265] (first compound 0.002 µM, partner dose 0.08 µM) | 56.2% | 85.2% | 66.3% | 66.2% | 65.9% | 99.6%
CS(=O)(=O)CCNCc1ccc(-c2ccc3ncnc(Nc4ccc(OCc5cccc(F)c5)c(Cl)c4)c3c2)o1 [lapatinib] + COc1cc(Nc2ncc(F)c(Nc3ccc4c(n3)NC(=O)C(C)(C)O4)n2)cc(OC)c1OC [Tamatinib] (first compound 0.8 µM, partner dose 0.4 µM) | 83% | 91.6% | 84.7% | 89.6% | 89% | 79.3%
